# From PubChem BioAssay AID1347417 (National Center for Advancing Translational Sciences (NCATS), 2020)
# Hit rate of the full screen: of about 120,000 compounds, about 5,300 (4.4%) were called active. The inconclusive results got no clear call from the source; some entries with a clear call stand among them for comparison. The call rests on the fitted dose curve; in most records, active means well fitted inhibition curve with a large enough effect; inconclusive means small, poorly fitted or top-dose-only effect; inactive means no such curve, though single readings can be large or run the other way. Potencies beside an inconclusive call are fits to weak or partial responses and may not hold up.
# Assay: qHTS Primary assay for Inhibitors of Plasmodium falciparum Dd2 growth in vitro; further: nearly all actives have a fitted effect of over 65% in size;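 on activity, negative = inhibition: plate controls were DMSO vehicle for no effect and reference drug for full effect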
# Settings: P. falciparum Dd2 growth, SYBR Green, 72 h; activity, negative = inhibition: at 28.9 µM (top of the series) unless noted; series mostly up to 28.9 µM
# Procedure, shortened: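 Readout: SYBR Green fluorescence, 485 nm excitation, 535 nm emission, after ~16 h lysis at 37C. Before that, Dd2-infected red cells (2.5% hematocrit) grew 72 h with compound, 29 uM top final concentration.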
# Potency means the concentration at half of the fitted maximal effect; tags describe the fitted curve by direction and shape.
SMILES,Potency,outcome,"activity, negative = inhibition"
CC(C)Oc1ccc(CNC(=O)C2Cn3cccc3C(=O)N2Cc2ccccc2)cc1 (stereo unspecified),"inconclusive: 20 µM [inhibitor, single point]",,
COc1ccc(-c2noc([C@@H]3CCCN3C(=O)Cc3ccc(C)cc3)n2)cc1OC,"inconclusive: 4.47 µM [inhibitor, partial curve, poor fit]",,
CN(C)c1ccc(CN2CC[C@H](c3nc4ncccc4[nH]3)C2)cc1,"inconclusive: 22.4 µM [inhibitor, single point]",,
O=C(c1ccccc1OC1CCN(Cc2ccc(-n3cccn3)cc2)CC1)N1CCCCC1,"inconclusive: 14.1 µM [inhibitor, single point]",,
CC(C)c1nc2c(c(-c3ccc(O)cc3)n1)CN(C(=O)N(C)C)CC2,,inactive,
Cc1cc(C)c(C)c(S(=O)(=O)N2CCC(c3c[nH]c4c(C)cccc34)CC2)c1C,,,inactive: -1.85%
COc1ccc(-n2ncc(-c3c(-c4ccccc4)ncn3CCCO)c2C)cc1,"inconclusive: 14.1 µM [inhibitor, partial curve, poor fit]",,
COc1ccc(CN2C(=O)[C@@H]3C[C@@H](CN3Cc3cccs3)Oc3ccccc32)cc1,"inconclusive: 2 µM [inhibitor, full curve]",,
COCCNC(=O)c1nc(-c2ccc(F)cc2)c2cnccn12,"inconclusive: 7.08 µM [inhibitor, partial curve, poor fit]",,
O=C1Nc2ccccc2CN(Cc2ccc(Cl)cc2)C12CCNC2 (stereo unspecified),active: 10 µM,,
Cc1cccc(OCC(=O)Nc2ccc(-c3nnc4n3CCCC4)cc2)c1,"inconclusive: 7.94 µM [inhibitor, partial curve, poor fit]",,
CC(C)(C)C(=O)N1CC[C@@H](CC(=O)O)[C@@H](CC2=NCCc3ccc(C(C)(C)C)cc32)C1,,,inactive: -11.3% [at 44.1 µM]
CCC(C)NC(=O)CCN(CC)C(=O)c1cc(C)oc1C (stereo unspecified),"inconclusive: 10 µM [inhibitor, partial curve, poor fit]",,
COc1ccc(C(=O)Nc2ccc3nc(N4CCCCC4)cc(C)c3c2)cc1OC,active: 3.16 µM,,
COCCCNC(=O)C1CCN(C(=O)c2cc3sccc3n2Cc2ccc(Cl)cc2)CC1,"inconclusive: 11.2 µM [inhibitor, single point]",,
O=C(c1ccccc1Cl)N1CCCN(c2cc(-c3ccc(F)cc3)[nH]n2)CC1,"inconclusive: 1.78 µM [inhibitor, single point]",,
Fc1ccc(Nc2c(-c3c[nH]c4ccccc34)nc3ccccn23)cc1,"inconclusive: 17.8 µM [inhibitor, single point]",,
O=C(CSc1ncc2c(n1)-c1cc(Cl)ccc1N(Cc1ccccc1)S2(=O)=O)NCc1ccccc1,"inconclusive: 17.8 µM [inhibitor, single point]",,
O=C1CSC2(C(=O)N(Cc3c(F)cccc3Cl)c3ccccc32)N1c1ccc(F)c(F)c1 (stereo unspecified),"inconclusive: 10 µM [inhibitor, single point]",,
COc1ccc(-c2cc3nc4c(c(=O)n3[nH]2)CN(C(=O)c2ccc(C)cc2)CC4)cc1,"inconclusive: 0.199 µM [inhibitor, partial curve, poor fit]",,
Cc1ccc(-c2nnn3c2nc(N2CCC(C)CC2)c2ccccc23)cc1,,,inactive: -11.1%

SMILES,Potency,outcome,"activity, negative = inhibition"
Cc1ccc(C)c(N2CCN(C(=O)c3cccn4c(=O)c5ccccc5nc34)CC2)c1,active: 12.6 µM,,
Cc1nc2ccc(S(=O)(=O)NCC(=O)Nc3ccc(C)c(Cl)c3)cc2s1,,inactive,
CS(=O)(=O)N[C@H]1CCN2C(=O)c3cc(Br)ccc3NC(=O)[C@@H]2C1,,,inactive: 22.9% [at 44.1 µM]
Cc1ccc(C(=O)N2CCC(OC3CCN(C)CC3)CC2)cc1C,"inconclusive: 7.94 µM [inhibitor, single point]",,
O=C(c1ccc(C(F)(F)F)cc1)N1CCC2(CC1)C(=NC1CCCCC1)NC(=O)N2c1cccnc1,"inconclusive: 10 µM [inhibitor, partial curve, poor fit]",,
CCOc1cccc(CN2CC(C(=O)NCc3ccncc3)C3(CCOCC3)C2)c1 (stereo unspecified),"inconclusive: 11.2 µM [inhibitor, partial curve, poor fit]",,
CC(C)(C)C(=O)N1CCCC2(COc3ccccc3[S+](=O)([O-])N2)C1 (stereo unspecified),"inconclusive: 12.6 µM [inhibitor, partial curve, poor fit]",,
CC1(C)C[C@H](NC(=O)c2ccccc2)[C@@]2(CCC(=O)NCCN3CCOCC3)CC[C@](C)(O)C[C@@H]12,,inactive,
O=C1Nc2ccccc2CC12CN(CC1CCCC1)C2,"inconclusive: 11.2 µM [inhibitor, single point]",,
O=C(Nc1nnc(S(=O)(=O)N2CCOCC2)s1)c1cccc(Br)c1,"inconclusive: 17.8 µM [inhibitor, single point]",,
CCn1c(C2CCCN(C(=O)c3sc(C(C)C)nc3C)C2)nn(C)c1=O (stereo unspecified),,,inactive: 24.1%
CCCCNc1cc(N2CCN(C3CCCCC3)CC2)c2noc3c2c1C(=O)c1ccccc1-3,active: 2.51 µM,,
Cc1cnc(CC2CCN(C(=O)C(C)C)C2)n1C(C)C (stereo unspecified),,,inactive: -16.4%
Cc1ccccc1CN1c2ccccc2-c2nc(SCC(=O)Nc3cc(F)ccc3F)ncc2S1(=O)=O,"inconclusive: 17.8 µM [inhibitor, single point]",,
COc1ccc(NC(=O)c2ccc3c(c2)OCCN(c2ccccc2)C3)c(F)c1,active: 10 µM,,
CCCN(CC1CC1)C(=O)[C@@H]1CN(S(=O)(=O)CC)C[C@H]1c1ccncc1,,,inactive: -0.785%
Cc1ccc(NC(=O)CSc2nc3nccnc3c(=O)n2CCc2c[nH]c3ccccc23)c(C)c1,"inconclusive: 17.8 µM [inhibitor, single point]",,
CC(=O)N1CC2(CCN(CC3CCCCC3)CC2)Cc2ccccc21,"inconclusive: 7.94 µM [inhibitor, partial curve]",,
Cc1nc(-c2ccco2)cc([C@H]2CN3CC[C@H]2C[C@@H]3CNC2CCOCC2)n1,active: 11.2 µM,,
COc1ccc(-c2nnc(SCC(=O)NCCc3ccccc3)nc2-c2ccc(OC)cc2)cc1,"inconclusive: 15.8 µM [inhibitor, single point]",,
